Experimental data reported in the antibiotic and cytotoxicity screens of Wong et al. (2023).
This is one part of the list.

Columns and labels:
[1] = test system: HSkMC (human skeletal muscle cells); assay: cytotoxicity call (relative viability < 0.9); conditions: 10 µM
[2] = test system: HepG2; assay: cytotoxicity call (relative viability < 0.9); conditions: 10 µM
[3] = test system: S. aureus RN4220; assay: growth inhibition call (relative growth <= 0.2); conditions: 50 µM

For CO[C@H]1CN(C)C(=O)c2ccc(NS(C)(=O)=O)cc2OC[C@H](C)N(C(=O)c2ccc3c(c2)OCO3)C[C@@H]1C, the cytotoxicity call [1] was “inactive”, the cytotoxicity call [2] was “inactive” and the growth inhibition call [3] was “inactive”.
N#CCN(CC#N)C(=O)c1ccco1 was tested, and the cytotoxicity call [1] was “inactive”, the cytotoxicity call [2] was “inactive” and the growth inhibition call [3] was “inactive”.
C[C@@H]1CCCCO[C@H](CN(C)Cc2ccc(C(=O)Nc3ccccc3N)cc2)[C@@H](C)CN([C@H](C)CO)C(=O)c2cc(NS(=O)(=O)c3ccc(Cl)cc3)ccc2O1 was tested, and the cytotoxicity call [1] was “inactive”, the cytotoxicity call [2] was “inactive” and the growth inhibition call [3] was “inactive”.
With COc1ccc(NC(=O)N(C)C[C@H]2OCCCC[C@H](C)Oc3ccc(NS(=O)(=O)c4ccc(C)cc4)cc3C(=O)N([C@@H](C)CO)C[C@H]2C)cc1 the cytotoxicity call [1] was “inactive”, the cytotoxicity call [2] was “inactive” and the growth inhibition call [3] was “inactive”.
With C[C@H](CCOc1cccc(CC(=O)O)c1)N(Cc1cccc(C(F)(F)F)c1Cl)CC(c1ccccc1)c1ccccc1 the cytotoxicity call [1] was “inactive”, the cytotoxicity call [2] was “inactive” and the growth inhibition call [3] was “inactive”.
With C[C@@H]1CCCCO[C@@H](CN(C)S(=O)(=O)c2cn(C)cn2)[C@@H](C)CN([C@H](C)CO)C(=O)c2cc(NC(=O)CCCN(C)C)ccc2O1 the cytotoxicity call [1] was “inactive”, the cytotoxicity call [2] was “inactive” and the growth inhibition call [3] was “inactive”.
In the case of CC(C)NC(=O)Nc1ccc2c(c1)C(=O)N([C@@H](C)CO)C[C@H](C)[C@H](CN(C)Cc1ccc(Cl)c(Cl)c1)OCCCC[C@@H](C)O2, the cytotoxicity call [1] is reported as “inactive”, the cytotoxicity call [2] is reported as “inactive” and the growth inhibition call [3] is reported as “inactive”.
In the case of C[C@@H]1CCCCO[C@H](CN(C)Cc2ccc(Cl)c(Cl)c2)[C@H](C)CN([C@@H](C)CO)C(=O)c2cc(NS(=O)(=O)c3ccccc3)ccc2O1, the cytotoxicity call [1] is reported as “active”, the cytotoxicity call [2] is reported as “inactive” and the growth inhibition call [3] is reported as “inactive”.
